Data from PubChem BioAssay AID248 (DTP/NCI, 2004).
Inconclusive results and toxic doses are left out. The source holds more than one record for some entries. This list holds those alone. An entry can have further records. The records of an entry repeat one measurement in other runs, samples, wells, individuals or studies. What stands in brackets tells the records apart. Letters hold for one entry only.

System: L1210 leukemia ip in BDF1 mice, survival T/C
Assay: NCI In Vivo Anticancer Drug Screen. Data for tumor model L1210 Leukemia (intraperitoneal) in B6D2F1 (BDF1) mice
Settings: endpoint: mean survival time, higher = longer survival

For `O=c1[nH]cnc2c1ncn2C1CCC(CO)C1` (stereo unspecified), the T/C (dose: 400.0 mg/kg/injection, schedule: Q01DX001 (ip), vehicle: carboxymethylcellulose (CMC)) was 87 % of control and 162 % of control.
In the case of `O=C(NC(=S)Nc1cc(C(F)(F)F)ccc1Cl)c1cccc([N+](=O)[O-])c1`, the T/C (dose: 100.0 mg/kg/injection, schedule: Q04DX002 (ip), vehicle: saline with Tween-80) is reported as 111 % of control and 164 % of control.
For `O=C(Nc1ccc(C2=NCCN2)cc1)c1ccc(C(=O)Nc2ccc(C3=NCCN3)cc2)cc1`, the T/C (dose: 15.0 mg/kg/injection, schedule: Q03DX Z (ip), vehicle: saline) was 121 % of control and 162 % of control.
For `COc1ccc(CC(N)C(=O)O)cc1N(CCCl)CCCl` (stereo unspecified), the T/C (dose: 0.6 mg/kg/injection, schedule: Q01DX009 (ip), vehicle: carboxymethylcellulose (CMC)) was 160 % of control [sample A] and 123 % of control [sample B] and the T/C (dose: 12.5 mg/kg/injection, schedule: Q01DX001 (ip), vehicle: carboxymethylcellulose (CMC)) was 93 % of control, 196 % of control [sample A] and 162 % of control [sample B].
For `CCCC/C=C/CO`, the T/C (dose: 100.0 mg/kg/injection, schedule: Q01DX009 (ip), vehicle: saline with Tween-80) was 103 % of control and 172 % of control.
